Measured values taken from PubChem BioAssay AID1671194 (National Center for Advancing Translational Sciences (NCATS), 2021).
Among all 140,000 compounds or so, about 240 (0.17%) were called active. Inconclusive means that the source gave no clear call. Such entries were picked first, then a sample of the others. The call rests on the fitted dose curve; in most records, active means well fitted inhibition curve with a large enough effect; inconclusive means small, poorly fitted or top-dose-only effect; inactive means no such curve, though single readings can be large or run the other way. Potencies beside an inconclusive call are fits to weak or partial responses and may not hold up.

test: Primary qHTS assay for inhibitors of alpha-synuclein gene (SNCA) expression; details: HEK-293 SNCA-luciferase knock-in, luminescence, 24 h; activity change, negative = inhibition: at 57.2 µM (top of the series) unless noted; further: nearly all actives have a fitted effect of over 45% in size;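 on activity change, negative = inhibition: plate controls were DMSO cells for no effect and cell-free wells for full effect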
Potency means the concentration at half of the fitted maximal effect; tags describe the fitted curve by direction and shape.

Potency, inconclusive:
CCN1c2cc(C(=O)Nc3ccc(Cl)c(Cl)c3)ccc2C(=O)N2CCCCCC21 (stereo unspecified) 3.98 µM [inhibitor, single point]
CCN1CCN(c2ncc3c(n2)CCN(Cc2sccc2C)C3)CC1 31.6 µM [inhibitor, single point]
CCOC1CCOC2(CCN(C(=O)c3ccco3)CC2)C1 (stereo unspecified) 17.8 µM [inhibitor, partial curve, poor fit]
CC(C)NC(=O)NCCNC(=O)c1cccc(-c2ccsc2)c1 12.6 µM [inhibitor, partial curve]
Cc1nn2c(c1-c1cccnc1N1CCOCC1)N(CCc1ccccc1)CCC2 12.6 µM [inhibitor, full curve, poor fit]
COc1cccc(N2C(=O)NC(=NC3CCCCC3)C23CCN(CC2CCCCC2)C3)c1 (stereo unspecified) 1.12 µM [inhibitor, full curve, poor fit]
Cn1cccc1CN1CCC2(CC1)CNC(=O)c1ccccc1O2 2.24 µM [inhibitor, partial curve, poor fit]
CC(C(=O)Nc1ccccc1C(F)(F)F)n1nnc2sc3c(c2c1=O)CCCC3 (stereo unspecified) 39.8 µM [inhibitor, single point]
Cc1nnc(-c2cc(-c3ccc(CO)cc3)ccn2)n1CCc1ccccc1 31.6 µM [inhibitor, partial curve, poor fit]
COc1ccc([C@@H](NC2CCN(C(=O)C(C)C)CC2)C2CC(O)C2)cn1 (stereo partly specified) 12.6 µM [inhibitor, partial curve, poor fit]
COc1ccc(NC(C)=O)cc1NC(=O)C[C@H]1NC(=O)c2ccccc2NC1=O 39.8 µM [inhibitor, single point]
Cc1cccc(C)c1NC(=O)CSc1ncc2c(n1)-c1ccc(Cl)cc1N(Cc1ccccc1)S2(=O)=O 3.55 µM [inhibitor, partial curve, poor fit]
O=C1Nc2ccc(-c3ccc(Cl)cc3)cc2C(=O)N2CCN(C(=O)C3CCCCC3)C[C@H]12 1.12 µM [inhibitor, full curve, poor fit]
O=c1c(-c2ccc(O)cc2)coc2cc(O[C@@H]3O[C@H](CO)[C@H](O)[C@H](O)[C@H]3O)ccc12 1.71 µM [inhibitor, full curve, poor fit]
CCOC(=O)Cc1ccc(NC(=O)n2ncc3cc(Cl)ccc32)cc1 1.12 µM [inhibitor, full curve, poor fit]
COc1ccccc1NC(=O)O[C@H]1COCCN(c2nc3ccccc3s2)C1 4.47 µM [inhibitor, full curve, poor fit]
COCCCNC(=O)c1cnc2n[nH]c(-c3ccc(OC)cc3C)c2n1 22.4 µM [inhibitor, single point]
O=C(Nc1ccccc1)N1CCC(C(=O)N2CCCC(c3nc4ncccc4[nH]3)C2)CC1 (stereo unspecified) 39.8 µM [inhibitor, single point]
C=CCC(O)(CC=C)CNC(=O)C1CCC(=O)N(CCc2ccccn2)C1 (stereo unspecified) 39.8 µM [inhibitor, single point]
CN1c2cc(C(=O)N3CCN(c4cccc(Cl)c4)CC3)ccc2C(=O)N2CCCCC21 (stereo unspecified) 39.8 µM [inhibitor, single point]
O=C(N[C@@H]1CN(C(=O)COc2ccc(F)cc2)CC[C@@H]1CO)C1CC1 35.5 µM [inhibitor, partial curve, poor fit]
COc1ccc2[nH]cc(CCNC(=O)Nc3cccc(F)c3)c2c1 35.5 µM [inhibitor, single point]
CC(C(=O)NCCc1ccccc1)N1C(=O)COc2ccc(C(=O)COc3cccc(Cl)c3)cc21 (stereo unspecified) 39.8 µM [inhibitor, single point]
c1ccc(-c2noc(-c3cncnc3N3CCSCC3)n2)cc1 0.631 µM [inhibitor, full curve, poor fit]
CCc1ccc(NC(=O)C2CCC(CNS(=O)(=O)c3cccs3)CC2)cc1 (stereo unspecified) 2.51 µM [inhibitor, partial curve, poor fit]
Cn1cc(C(=O)NCCc2ccccc2)c(=O)c2cc(S(=O)(=O)N3CCCCCC3)ccc21 0.158 µM [inhibitor, partial curve, poor fit]
O=C(Nc1ccc(F)c(F)c1)N1CCc2c(c3ccccc3n2CC2CC2)C1 7.94 µM [inhibitor, full curve, poor fit]
OC[C@@H]1CNC[C@H]1C1CCN(Cc2ccncc2)CC1 39.8 µM [inhibitor, single point]
Cc1noc(-c2ccc(OC3CN(S(=O)(=O)c4cn(C)cn4)C3)cc2)n1 35.5 µM [inhibitor, partial curve, poor fit]
CS(=O)(=O)N[C@@H]1[C@@H](NC(=O)CCn2nnc3ccccc32)[C@H]2CCO[C@H]21 7.08 µM [inhibitor, single point]
CC(C)(Oc1nn(CCOc2ccccc2)c2ccccc12)C(=O)NCc1ccncc1 56.2 µM [inhibitor, single point]
FC(F)Oc1ccccc1CN(CC1CCN(C2CCCC2)CC1)CC1CCCO1 (stereo unspecified) 7.08 µM [inhibitor, partial curve]
COc1ccc(C(=O)N2CC[C@](C)(O)C(C)(C)C2)cc1Cl 8.91 µM [inhibitor, single point]
COc1ccc(Cc2nc3ccc(C(=O)NCCCN4CCN(C)CC4)cc3o2)cc1 44.7 µM [inhibitor, single point]
COc1ccccc1C(=O)NC1CCN(c2ccnc3ccnn23)CC1 39.8 µM [inhibitor, single point]
COCCNC(=O)c1ccc2c(=O)n(CCOC)c(SCC(=O)c3c[nH]c4ccccc34)nc2c1 7.08 µM [inhibitor, single point]
CCOC(=O)c1ccc(N2C(=O)Cc3cc(OCC)c(OCC)cc3C2c2ccccc2)cc1 (stereo unspecified) 20 µM [inhibitor, single point]
COc1ccc(N(CC(=O)Nc2cc(Cl)ccc2C)S(=O)(=O)c2c(C)noc2C)cc1 14.1 µM [inhibitor, partial curve, poor fit]
COc1ccc2ccc(OCc3nc(C(=O)N(C)Cc4cc(C)no4)co3)cc2c1 22.4 µM [inhibitor, partial curve, poor fit]
CCOc1cc(=O)n2c(c1C(=O)Nc1ccccc1Cl)CCCC2 11.2 µM [inhibitor, partial curve, poor fit]
CCOC(=O)N1CCC(=C2c3ccc(Cl)cc3CCc3cccnc32)CC1 39.8 µM [inhibitor, single point]
Cn1cnc([S+](=O)([O-])NC2CCN(C(=O)N3CC4CC(C3)[C@H]3CCCC(=O)N3C4)CC2)c1 (stereo partly specified) 7.08 µM [inhibitor, single point]
COC(=O)c1ccc(Cn2c(SCc3ccccc3)nc3ccncc32)cc1 39.8 µM [inhibitor, single point]
CCc1ccc(-n2c(SCc3ccccc3C)nc3[nH]ncc3c2=O)cc1 0.708 µM [inhibitor, partial curve, poor fit]
O=C(c1ccc(F)cc1)N1CCC2(CC1)OCC(C(=O)N1CCCC1)N2C(=O)c1cccc(F)c1 (stereo unspecified) 8.91 µM [inhibitor, single point]
CCOc1ccccc1NC(=O)Cn1c(=O)n(-c2ccc(F)cc2)c(=O)c2c3c(sc21)CN(C(C)=O)CC3 10 µM [inhibitor, partial curve, poor fit]

Potency, active:
O=C(c1ncn[nH]1)N1C[C@@H](COCC2CC2)[C@H](c2ccccn2)C1 0.794 µM

Activity change, negative = inhibition, inactive:
C#CCNC(=O)c1nc2sccn2c1-c1cccc(OC)c1 25.2% [at 87.6 µM]
CNC(=O)N1CCC(C2CCN(C(=O)Cc3ccsc3)C2)CC1 (stereo unspecified) 16.5%
COCc1cc(C[C@@H]2C[C@H](NS(=O)(=O)c3ccccc3)C2(C)C)no1 0.796% [at 87.6 µM]
Cc1ccc(S(=O)(=O)N[C@H]2CO[C@H]3[C@@H]2OC[C@@H]3n2nnnc2Oc2ccc(-n3ccnc3)cc2)cc1 -11%
O=C(c1ccccn1)N1CC(Oc2ccc(F)c(F)c2)C1 40.7% [at 87.6 µM]
CCN1CCN(C(=O)c2cc(-c3cccc(C(F)(F)F)c3)nc3c2cnn3C)CC1 -0.72%
CC(=O)c1cccc(Nc2ncnc3c2cnn3C)c1 55.1%
Clc1ccc(Nc2ncc(-c3cccnc3)c3c2OCC3)cc1 204% [at 87.6 µM]
O=[S+]1([O-])c2cccnc2OC(COc2ccccc2)CN1C1Cc2ccccc2C1 (stereo unspecified) 10.8% [at 25.6 µM]
COC(=O)CNC(=O)C1CCCCN1Cc1ccc(-c2cccs2)cc1 (stereo unspecified) -0.163%
CCN(Cc1nccn1C)C(=O)c1ccc(N2CCSCC2)nc1 -11.8%
COc1ccccc1-n1cc(C(=O)N2CCC3(CCNC(=O)CC3)CC2)cn1 43.7%
COc1cccc(N2C(=O)NC(=NC3CCCCC3)C23CCN(C(=O)c2ccc(C)cc2)C3)c1 (stereo unspecified) -6.53%
Fc1ccccc1-c1n[nH]c2c1CN(Cc1cccn1-c1nccs1)CC2 -23%
